According to the BET-seq Pho4 binding data (Le et al. 2018):
Some of the results follow. These are noisy estimates, calculated here from bound and input reads.

molecular target: T1, Pho4 (S. cerevisiae) (UniProt P07270); test: relative binding free energy (BET-seq); higher = weaker binding; details: reference: library average
T1 sequence: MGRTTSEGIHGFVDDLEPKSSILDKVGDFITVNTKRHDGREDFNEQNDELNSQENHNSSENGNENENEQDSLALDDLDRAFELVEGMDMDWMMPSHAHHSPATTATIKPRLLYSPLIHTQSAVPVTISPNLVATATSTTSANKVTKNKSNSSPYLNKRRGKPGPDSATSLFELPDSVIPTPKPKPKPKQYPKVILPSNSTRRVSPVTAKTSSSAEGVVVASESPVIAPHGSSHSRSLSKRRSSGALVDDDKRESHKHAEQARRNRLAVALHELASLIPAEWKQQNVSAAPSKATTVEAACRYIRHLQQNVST

Row | Sequence | relative binding free energy
1 | TGTCTCACGTGGTGCA | 0.16 kcal/mol
2 | GTTGTCACGTGAGACG | 0.19 kcal/mol
3 | GTTCTCACGTGGTGAT | 0.23 kcal/mol
4 | ACACTCACGTGGTTGG | 0.23 kcal/mol
5 | GTGGCCACGTGGGCTT | -0.17 kcal/mol
6 | ATCGGCACGTGAGAAT | 0.38 kcal/mol
7 | TTTTTCACGTGTAACA | 0.34 kcal/mol
8 | TGCATCACGTGTATTG | 0.17 kcal/mol
9 | TTTTTCACGTGGAGCG | 0.28 kcal/mol
10 | GGCAGCACGTGGGGCG | -0.3 kcal/mol
11 | TGTCGCACGTGAGGGT | 0.09 kcal/mol
12 | AATGTCACGTGTCGTA | 0.17 kcal/mol
13 | TCGTGCACGTGTGAGA | 0.01 kcal/mol
14 | GGTGGCACGTGTAAGA | 0.06 kcal/mol
15 | AAGCACACGTGGGTGT | -0.07 kcal/mol
16 | TTAGGCACGTGATAGA | -0.13 kcal/mol
17 | GTTGGCACGTGGTGAG | -0.1 kcal/mol
18 | TGCTTCACGTGGGCTA | 0.18 kcal/mol
19 | GAGTACACGTGGGGAT | 0.01 kcal/mol
20 | TGTAGCACGTGAATAA | 0.11 kcal/mol
21 | AGTATCACGTGTGCAT | 0.16 kcal/mol
22 | CTGTTCACGTGTTTGG | 0.25 kcal/mol
23 | CGGGACACGTGGAGGG | 0.01 kcal/mol
24 | ATTGACACGTGGGTAA | -0.07 kcal/mol
25 | ACGTACACGTGTTAGT | 0.05 kcal/mol

Row | Sequence | relative binding free energy
26 | TCCTGCACGTGTGTGG | -0.01 kcal/mol
27 | GTATGCACGTGAGTAC | 0.27 kcal/mol
28 | GTGCGCACGTGGTACG | -0.02 kcal/mol
29 | CGAGGCACGTGATGCT | 0.01 kcal/mol
30 | ATCTACACGTGTATGG | 0.09 kcal/mol
31 | TTTATCACGTGGGAAA | 0.16 kcal/mol
32 | GCGATCACGTGGTTTT | 0.11 kcal/mol
33 | AGCAACACGTGTAGTG | 0.11 kcal/mol
34 | GAAGGCACGTGGGGAG | -0.13 kcal/mol
35 | TTCGGCACGTGAATAT | 0.05 kcal/mol
36 | TAATGCACGTGTTAAG | -0.07 kcal/mol
37 | TGCGTCACGTGTGTAG | 0.07 kcal/mol
38 | TTGGGCACGTGACGCT | -0.1 kcal/mol
39 | TCGGTCACGTGAATTG | 0.29 kcal/mol
40 | ACGGGCACGTGGTGAT | -0.22 kcal/mol
41 | GATTGCACGTGTGCGT | 0.18 kcal/mol
42 | AGCAACACGTGGGGGT | -0.19 kcal/mol
43 | CGGTTCACGTGGAAAG | 0.41 kcal/mol
44 | GCTTGCACGTGTTTTG | -0.08 kcal/mol
45 | GTTTTCACGTGAATTC | 0.59 kcal/mol
46 | ATGTGCACGTGAAGGG | 0.22 kcal/mol
47 | ATTTACACGTGTGTTT | 0.05 kcal/mol
48 | TCAGGCACGTGGGTCG | -0.31 kcal/mol
49 | GGGTACACGTGAGGTG | 0.34 kcal/mol
50 | TGTCTCACGTGCTAGT | 0.25 kcal/mol

Row | Sequence | relative binding free energy
51 | AGTATCACGTGTATAG | 0.2 kcal/mol
52 | CGTCGCACGTGTTGGT | -0.13 kcal/mol
53 | ATATACACGTGTAGTG | -0.04 kcal/mol
54 | CAAGGCACGTGTTGGT | -0.22 kcal/mol
55 | TGTGACACGTGATCTA | 0.11 kcal/mol
56 | TGGCTCACGTGGATTT | 0.2 kcal/mol
57 | TATGGCACGTGCGGTG | -0.3 kcal/mol
58 | TGAAGCACGTGTGTAT | -0.14 kcal/mol
59 | AGATACACGTGCGTGT | -0.07 kcal/mol
60 | GTAATCACGTGGTTAT | 0.06 kcal/mol
61 | GTGTTCACGTGTGGTT | 0.36 kcal/mol
62 | TGTCCCACGTGAGGGT | 0.11 kcal/mol
63 | TGAGTCACGTGATTTG | 0.23 kcal/mol
64 | TAGGCCACGTGAGATG | 0.15 kcal/mol
65 | CAGTTCACGTGCGTGG | 0.2 kcal/mol
66 | GTTTTCACGTGGGAGC | 0.16 kcal/mol
67 | ATTCTCACGTGATTTA | 0.3 kcal/mol
68 | AGGTACACGTGTAGCG | 0.08 kcal/mol
69 | GTGGTCACGTGGTAGT | 0.19 kcal/mol
70 | GGATCCACGTGTGAGG | 0.22 kcal/mol
71 | TCTAACACGTGGGGGA | -0.15 kcal/mol
72 | TGAGACACGTGGTGTA | -0.2 kcal/mol
73 | GTCAGCACGTGTGGAT | 0.13 kcal/mol
74 | TGGGGCACGTGGGCTC | -0.24 kcal/mol
75 | CGGGACACGTGATGGG | 0.1 kcal/mol

Row | Sequence | relative binding free energy
76 | AGGGGCACGTGTTGTC | -0.1 kcal/mol
77 | GTCAACACGTGGTATG | 0.02 kcal/mol
78 | TGGTGCACGTGAGTAC | 0.25 kcal/mol
79 | TCGGGCACGTGTGGAC | 0.1 kcal/mol
80 | TGTAACACGTGTCGAG | 0.12 kcal/mol
81 | GTAAACACGTGGTAGG | -0.14 kcal/mol
82 | GTGGGCACGTGAGCAG | 0.18 kcal/mol
83 | ATAGTCACGTGGTGAC | 0.1 kcal/mol
84 | TATCACACGTGAGTTT | 0.33 kcal/mol
85 | CTGTCCACGTGGGTTG | -0.14 kcal/mol
86 | GGGCACACGTGTGTGT | 0.12 kcal/mol
87 | TAGCGCACGTGTGTCG | -0.15 kcal/mol
88 | GAGGGCACGTGTGGTA | 0.04 kcal/mol
89 | TGGAGCACGTGTTTCT | -0.12 kcal/mol
90 | TGTGGCACGTGGCCAG | -0.21 kcal/mol
91 | CGATGCACGTGTGCTG | -0.03 kcal/mol
92 | AAGGGCACGTGGAGTA | -0.16 kcal/mol
93 | TTGGGCACGTGAACTT | 0.08 kcal/mol
94 | TGTGCCACGTGCGTCG | -0.12 kcal/mol
95 | ATCTGCACGTGAGGTT | 0.22 kcal/mol
96 | GACGGCACGTGAGATG | 0.28 kcal/mol
97 | TTAGGCACGTGAGGGC | 0.17 kcal/mol
98 | TTGAGCACGTGTGCAT | -0.16 kcal/mol
99 | AGAGTCACGTGGAGTT | 0.15 kcal/mol
100 | GATGACACGTGGGCGG | -0.08 kcal/mol

Row | Sequence | relative binding free energy
101 | AGGCTCACGTGTGTTA | 0.19 kcal/mol
102 | TGCGGCACGTGGGTTA | -0.14 kcal/mol
103 | AGTCTCACGTGGTGAT | 0.17 kcal/mol
104 | TGTAGCACGTGTTGAG | -0.1 kcal/mol
105 | TTGACCACGTGTATGG | -0.12 kcal/mol
106 | GGTTACACGTGAGGAA | 0.41 kcal/mol
107 | TGGTACACGTGGGCGC | -0.08 kcal/mol
108 | TAAATCACGTGGATAG | 0.26 kcal/mol
109 | GGGGCCACGTGGGAGC | -0.06 kcal/mol
110 | TTGGTCACGTGTTATC | 0.16 kcal/mol
111 | GATTTCACGTGTCTGG | 0.3 kcal/mol
112 | TGATACACGTGTTGCT | -0.13 kcal/mol
113 | TTCTTCACGTGGTAGG | 0.15 kcal/mol
114 | TTAATCACGTGTGGCT | 0.05 kcal/mol
115 | TAAATCACGTGTTATT | 0.15 kcal/mol
116 | CTTGTCACGTGCGTGG | -0.14 kcal/mol
117 | TTTGGCACGTGTGTTG | 0 kcal/mol
118 | GAGTACACGTGGGGTT | -0.09 kcal/mol
119 | ATTATCACGTGGCGGT | 0.02 kcal/mol
120 | AATGTCACGTGTCGGG | 0.23 kcal/mol
121 | TTCGTCACGTGTGATT | 0.14 kcal/mol
122 | GTTGGCACGTGGTTAG | -0.02 kcal/mol
123 | AATATCACGTGCGGGG | 0.28 kcal/mol
124 | GAGGGCACGTGGCTGT | -0.1 kcal/mol
125 | GGTTGCACGTGAGGCA | 0.13 kcal/mol

Row | Sequence | relative binding free energy
126 | TTGTGCACGTGAGCTA | 0.19 kcal/mol
127 | GCGGGCACGTGGTTGC | -0.14 kcal/mol
128 | GTGCGCACGTGTTCGT | -0.06 kcal/mol
129 | AGTTACACGTGTTTGG | 0.11 kcal/mol
130 | AAGGACACGTGCTTGT | 0 kcal/mol
131 | CTCTGCACGTGTATGG | 0.08 kcal/mol
132 | TGTGGCACGTGGGACA | -0.18 kcal/mol
133 | GTTGGCACGTGGTAAG | -0.1 kcal/mol
134 | TTGGGCACGTGGTAGG | -0.07 kcal/mol
135 | CATGGCACGTGTAGAG | 0.05 kcal/mol
136 | GTCGGCACGTGGGTGA | -0.18 kcal/mol
137 | AAATGCACGTGTTTAA | 0.05 kcal/mol
138 | TGGCGCACGTGGGGTA | -0.14 kcal/mol
139 | TATGCCACGTGGTGTA | -0.16 kcal/mol
140 | ATCGTCACGTGAGTTA | 0.26 kcal/mol
141 | CTGGGCACGTGGGAGG | -0.17 kcal/mol
142 | TTCGTCACGTGGGTGA | 0.1 kcal/mol
143 | CGTATCACGTGTTCGT | 0.1 kcal/mol
144 | CGTTTCACGTGTATGG | 0.31 kcal/mol
145 | GTCTTCACGTGTGGGA | 0.27 kcal/mol
146 | GGTCTCACGTGTTAGG | 0.32 kcal/mol
